Results taken from publication PMC4336329 (PLoS ONE, 2015).
The campaign covered roughly 310,000 compounds. About 2,200 (0.71%) showed an effect of 50% or more. Effects have a minus sign here. The list shows a part of the results.

Each compound was assayed against human ether-à-go-go-related gene (hERG) potassium channel (human, UniProt Q12809) (assay: primary screen, population patch clamp on CHO cells stably expressing hERG).
human ether-à-go-go-related gene (hERG) potassium channel, sequence (Q12809 whole entry, looked up): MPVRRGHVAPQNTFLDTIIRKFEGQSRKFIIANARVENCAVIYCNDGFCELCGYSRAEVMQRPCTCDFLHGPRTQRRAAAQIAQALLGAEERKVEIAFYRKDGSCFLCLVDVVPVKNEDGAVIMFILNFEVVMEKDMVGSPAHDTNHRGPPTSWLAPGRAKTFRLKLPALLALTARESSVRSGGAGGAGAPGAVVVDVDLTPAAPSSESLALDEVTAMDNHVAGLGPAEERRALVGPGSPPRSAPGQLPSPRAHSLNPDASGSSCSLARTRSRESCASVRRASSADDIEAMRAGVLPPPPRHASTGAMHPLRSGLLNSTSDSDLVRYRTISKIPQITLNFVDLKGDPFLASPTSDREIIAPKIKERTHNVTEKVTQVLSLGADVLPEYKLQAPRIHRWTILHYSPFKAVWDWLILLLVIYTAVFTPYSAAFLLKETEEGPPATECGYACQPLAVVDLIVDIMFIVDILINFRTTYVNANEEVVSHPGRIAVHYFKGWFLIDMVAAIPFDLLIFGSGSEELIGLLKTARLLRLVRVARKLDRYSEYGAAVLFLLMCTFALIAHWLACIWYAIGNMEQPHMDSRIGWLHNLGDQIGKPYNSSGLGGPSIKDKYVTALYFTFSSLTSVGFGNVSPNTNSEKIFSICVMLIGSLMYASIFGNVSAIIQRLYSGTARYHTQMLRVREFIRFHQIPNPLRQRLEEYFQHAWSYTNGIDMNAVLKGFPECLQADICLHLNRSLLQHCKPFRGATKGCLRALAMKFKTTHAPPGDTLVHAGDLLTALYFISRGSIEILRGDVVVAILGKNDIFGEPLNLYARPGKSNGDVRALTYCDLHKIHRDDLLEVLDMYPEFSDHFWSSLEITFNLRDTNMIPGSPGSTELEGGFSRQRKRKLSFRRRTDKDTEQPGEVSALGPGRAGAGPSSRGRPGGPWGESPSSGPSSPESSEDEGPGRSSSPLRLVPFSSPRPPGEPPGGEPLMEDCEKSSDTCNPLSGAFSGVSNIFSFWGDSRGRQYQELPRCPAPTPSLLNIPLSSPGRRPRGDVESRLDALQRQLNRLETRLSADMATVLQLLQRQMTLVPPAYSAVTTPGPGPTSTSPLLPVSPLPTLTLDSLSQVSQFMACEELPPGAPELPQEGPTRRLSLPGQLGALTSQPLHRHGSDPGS
For Fc1ccc(NCc2ccccc2F)cc1Cl, the “hERG current change (%, negative = inhibition) at 1uM” value was -76.5%. For CCCn1cc(S(=O)(=O)CC(=O)N2CCc3ccccc32)c2ccccc21, the “hERG current change (%, negative = inhibition) at 1uM” value was 5.83%. In the case of COC(=O)[C@@](C)(O)C1(C(=O)SC(C)(C)C)CC1, the “hERG current change (%, negative = inhibition) at 1uM” value is reported as 8.34%. COc1cccc(CNC(=O)C2CCN(c3ncnc4c3nc3n4CCCCC3)CC2)c1 was tested, and the “hERG current change (%, negative = inhibition) at 1uM” value was 15.2%. In the case of CC(C)=NN1C(c2nonc2N)=NOC1(C)C, the “hERG current change (%, negative = inhibition) at 1uM” value is reported as 6.43%. With O=C1C(=O)N(CCc2c[nH]c3ccccc23)C(c2cccnc2)/C1=C(/O)c1ccccc1 (centres unmarked) the “hERG current change (%, negative = inhibition) at 1uM” value was 8.84%. In the case of CC1(C)CC2CC(C)(CN2C(=O)c2ccccc2)C1 (centres unmarked), the “hERG current change (%, negative = inhibition) at 1uM” value is reported as 8.21%. Cc1cc(NC(=O)c2noc3c2CCc2ccccc2-3)n(-c2ccccc2)n1 was tested, and the “hERG current change (%, negative = inhibition) at 1uM” value was 10.4%. CC(C)c1c(C(=O)N/N=C/c2cccnc2)nnn1-c1nonc1N was tested, and the “hERG current change (%, negative = inhibition) at 1uM” value was 13.7%. With O=C(CCCc1ccccc1)NCc1ccccn1 the “hERG current change (%, negative = inhibition) at 1uM” value was 9.55%. In the case of CCCCOc1ccc(C(=O)OCC(=O)NC2CCCC2)cc1, the “hERG current change (%, negative = inhibition) at 1uM” value is reported as 7.23%. CS(=O)(=O)Nc1ccc2c(c1)ncn2CCc1ccccc1 was tested, and the “hERG current change (%, negative = inhibition) at 1uM” value was -5.57%. For CCn1cc(CN(C)C(=O)/C=C/c2ccc([N+](=O)[O-])cc2)c(C)n1, the “hERG current change (%, negative = inhibition) at 1uM” value was -35.3%. With CC1CN(C(=O)/C=C/c2ccccc2[N+](=O)[O-])CC(C)O1 (centres unmarked) the “hERG current change (%, negative = inhibition) at 1uM” value was 6.46%. For COc1cccc(NC(=S)NNC(=O)c2c([N+](=O)[O-])c(C)nn2C)c1, the “hERG current change (%, negative = inhibition) at 1uM” value was 8.54%. With COc1ccc(-c2[nH]ncc2/C=C(/C#N)C(=O)NC2CCCCCC2)cc1 the “hERG current change (%, negative = inhibition) at 1uM” value was 5.36%. With NS(=O)(=O)c1cccc(NC(=O)CCSc2ccccc2Cl)c1 the “hERG current change (%, negative = inhibition) at 1uM” value was 5.04%. With CC(=O)c1ccc(NC(=O)C(C)Nc2ccc(Cl)cc2)cc1 (centres unmarked) the “hERG current change (%, negative = inhibition) at 1uM” value was 7.44%. Cc1c(Cl)cccc1NC(=O)CN(C1CCCCC1)S(C)(=O)=O was tested, and the “hERG current change (%, negative = inhibition) at 1uM” value was 11.2%. Cc1c(N)cccc1[N+](=O)[O-] was tested, and the “hERG current change (%, negative = inhibition) at 1uM” value was 19.9%. Cc1ccc2c(c1)C1C=CCC1C(C(=O)O)N2 (centres unmarked) was tested, and the “hERG current change (%, negative = inhibition) at 1uM” value was 12.1%. With CCCNC(=O)CN(Cc1ccccc1F)S(=O)(=O)c1ccc(C)cc1 the “hERG current change (%, negative = inhibition) at 1uM” value was 5.85%. For COc1ccc(/C=C2\SC(=Nc3ccccc3OC)NC2=O)cc1, the “hERG current change (%, negative = inhibition) at 1uM” value was 11.8%. COc1ccc(Cn2cnc3c4cc(F)ccc4n(C)c3c2=O)cc1 was tested, and the “hERG current change (%, negative = inhibition) at 1uM” value was 1.01%. With Cc1c(CC(=O)NCC(=O)NCC(=O)O)c(=O)oc2cc3oc4c(c3cc12)CCCC4 the “hERG current change (%, negative = inhibition) at 1uM” value was 9.76%. For NC(=O)C1CC(O)CN1c1nc(CN2CCOCC2)nc2scc(-c3ccccc3)c12 (centres unmarked), the “hERG current change (%, negative = inhibition) at 1uM” value was 0.0341%. For CS(=O)(=O)C1=NN2C(=N)/C(=C\c3ccc(OC(=O)c4ccco4)cc3)C(=O)N=C2S1, the “hERG current change (%, negative = inhibition) at 1uM” value was 12.7%. O=C(Nc1cc(S(=O)(=O)N2CCCC2)ccc1OCC(F)(F)F)c1ccc(F)cc1 was tested, and the “hERG current change (%, negative = inhibition) at 1uM” value was 5.41%. CCOCC(=O)Nc1nc2ccc(OCC)cc2s1 was tested, and the “hERG current change (%, negative = inhibition) at 1uM” value was 15%. In the case of N=C1SCC(=O)N1c1nc(-c2ccccc2)cs1, the “hERG current change (%, negative = inhibition) at 1uM” value is reported as 8.19%. For Cc1sc2ncnc(NCCc3ccc(S(N)(=O)=O)cc3)c2c1C, the “hERG current change (%, negative = inhibition) at 1uM” value was 15.9%. With CC(C)OC(=O)CC12CN3CC(CC(=O)OC(C)C)(CN(C1)C(=O)c1ccccc1C3=O)C2=O the “hERG current change (%, negative = inhibition) at 1uM” value was 8.55%. In the case of Cc1ccc(N2CC(C(=O)Nc3ccc(S(=O)(=O)Nc4ncccn4)cc3)CC2=O)cc1C (centres unmarked), the “hERG current change (%, negative = inhibition) at 1uM” value is reported as 18.1%. For O=C(NCC1(c2ccccc2)CCCC1)C1(c2ccccc2)CCCC1, the “hERG current change (%, negative = inhibition) at 1uM” value was -13.3%. COc1ccc(NC(=O)C(C)Oc2ccc(/C(C)=N\O)cc2)cc1 (centres unmarked) was tested, and the “hERG current change (%, negative = inhibition) at 1uM” value was 15%. For CCCC(=O)N(Cc1cc2cccc(C)c2[nH]c1=O)c1ccccc1OC, the “hERG current change (%, negative = inhibition) at 1uM” value was 15.3%. With CSc1ccc(Cl)c(C(=O)N2CCN(c3ncccn3)CC2)c1 the “hERG current change (%, negative = inhibition) at 1uM” value was -5.77%. In the case of COc1cccc(C(=O)NOCc2ccc(C)cc2)c1OC, the “hERG current change (%, negative = inhibition) at 1uM” value is reported as -2.52%. For CCN(CC)S(=O)(=O)c1ccc(C(=O)NCCCN=C2NS(=O)(=O)c3ccccc32)cc1, the “hERG current change (%, negative = inhibition) at 1uM” value was 2.62%. For O=c1c2ccccc2ncn1-c1ccccc1C(F)(F)F, the “hERG current change (%, negative = inhibition) at 1uM” value was 9.54%. In the case of Cc1ccc(C(=O)C2CCN(CC(=O)NCc3ccc(F)cc3)CC2)cc1, the “hERG current change (%, negative = inhibition) at 1uM” value is reported as -17.5%. With CCn1c(=O)n(CC)c2cc([N+](=O)[O-])c(N3CCNCC3)cc21 the “hERG current change (%, negative = inhibition) at 1uM” value was 15.2%. Cc1c(NC(=O)Nc2ccc3c(c2)OCO3)c(=O)n(-c2ccccc2)n1C was tested, and the “hERG current change (%, negative = inhibition) at 1uM” value was -1.51%. CC(C)(C)c1ccc(NC(=O)c2ccc(=O)[nH]n2)cc1 was tested, and the “hERG current change (%, negative = inhibition) at 1uM” value was 4.23%. For COc1cccc(C2C(C(=O)c3cc4cccc(OC)c4o3)=C(O)C(=O)N2c2cc(C)on2)c1OC (centres unmarked), the “hERG current change (%, negative = inhibition) at 1uM” value was 2.78%. With Cc1ccc(C)c(S(=O)(=O)N2CCN(CC(=O)Nc3ccc4c(c3)OCCO4)CC2)c1 the “hERG current change (%, negative = inhibition) at 1uM” value was 6.66%. With Cc1cc(C(F)F)nn1CC(=O)NCc1ccccc1F the “hERG current change (%, negative = inhibition) at 1uM” value was 6.99%. With C=CCOc1cccc(C2/C(=C(\O)c3ccc4c(c3)OCCO4)C(=O)C(=O)N2CCN2CCOCC2)c1 (centres unmarked) the “hERG current change (%, negative = inhibition) at 1uM” value was 6.52%. With CN(C)CCNCCCOc1ccccc1-c1ccccc1.O=C(O)C(=O)O the “hERG current change (%, negative = inhibition) at 1uM” value was 4.5%. For CCCn1cnc2c(cnn2-c2ccc(F)cc2)c1=O, the “hERG current change (%, negative = inhibition) at 1uM” value was 5.66%. For O=C(Nc1ccc(-c2cn3ccsc3n2)cc1)C1CCCC1, the “hERG current change (%, negative = inhibition) at 1uM” value was 11.7%. For CCOc1cc(C2C(C(=O)OCC(C)C)=C(C)N=C3SCCC(=O)N32)ccc1OC(C)=O (centres unmarked), the “hERG current change (%, negative = inhibition) at 1uM” value was -0.245%. With CCCCNc1nc(-c2ccccc2)cc(C(F)(F)F)c1C(N)=O the “hERG current change (%, negative = inhibition) at 1uM” value was 11.3%. For CCOC(=O)N1CCC(NC(=O)Cn2ncc3c2-c2cc(C)ccc2OC3)CC1, the “hERG current change (%, negative = inhibition) at 1uM” value was 10.9%. With COc1ccc(-c2nnc(NC(=O)CSc3ccccc3)s2)cc1OC the “hERG current change (%, negative = inhibition) at 1uM” value was 16.9%. With CC1CCN(Cc2nnnn2-c2ccc(Cl)cc2)CC1 the “hERG current change (%, negative = inhibition) at 1uM” value was 8.07%.
